# Measured values from the supplement of paper PMC4206461.
# The other results are listed elsewhere or left out.
# Test system: Pseudomonas aeruginosa PA14 dppA1-A5 penta deletion mutant
# Assay: respiration area under curve with compound as sole nitrogen source, 24 h (OmniLog AUC (arbitrary units)); higher = more respiration / better utilisation as nitrogen source, active = 2000 or more; extreme values may be limits of the assay
# Details: plate: PM6
# Experimental: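 Biolog Phenotype MicroArray plates PM6-PM8: each di/tripeptide is the sole nitrogen source. Tetrazolium reduction was read in the OmniLog for 24 h at 37°C and summarised as area under the respiration curve (arbitrary units). Values below 2000 count as no respiration.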
row,SMILES,respiration area under curve
1,NCC(=O)N[C@@H](Cc1c[nH]c2ccccc12)C(=O)O,inactive: 289
2,NCC(=O)N[C@@H](Cc1ccc(O)cc1)C(=O)O,inactive: 480
3,N[C@@H](CCC(=O)O)C(=O)N[C@@H](CCC(=O)O)C(=O)O,inactive: 0
4,N[C@@H](CCC(=O)O)C(=O)N[C@@H](Cc1c[nH]c2ccccc12)C(=O)O,active: 2350
5,C[C@H](N)C(=O)N[C@@H](Cc1ccccc1)C(=O)O,active: 5060
6,C[C@H](N)C(=O)N[C@@H](CCCN=C(N)N)C(=O)O,active: 10200
7,CC(C)[C@H](NC(=O)[C@@H](N)CCC(=O)O)C(=O)O,inactive: 130
8,CC(C)C[C@H](N)C(=O)N[C@@H](Cc1ccccc1)C(=O)O,active: 5660

# Same assay, conditions: plate: PM7
row,SMILES,respiration area under curve
1,CC(C)C[C@H](NC(=O)[C@@H](N)C(C)C)C(=O)O,active: 6420
2,CSCC[C@H](N)C(=O)NCC(=O)O,inactive: 732
3,N[C@@H](Cc1ccccc1)C(=O)N[C@@H](Cc1ccccc1)C(=O)O,active: 5040
4,CC(C)C[C@H](NC(=O)[C@@H](N)CO)C(=O)O,active: 3380
5,N[C@@H](Cc1ccc(O)cc1)C(=O)NCC(=O)O,active: 5000
6,CC(C)CC(N)C(=O)NC(Cc1c[nH]c2ccccc12)C(=O)O (stereo unspecified),active: 8290
7,CSCC[C@H](N)C(=O)N[C@@H](CC(=O)O)C(=O)O,inactive: 1880
8,CSCC[C@H](N)C(=O)N[C@@H](Cc1c[nH]c2ccccc12)C(=O)O,active: 2830

# Same assay, conditions: plate: PM8
row,SMILES,respiration area under curve
1,C[C@H](NC(=O)CNC(=O)CN)C(=O)O,inactive: 328
2,CC(C)C[C@H](N)C(=O)N[C@H](CC(C)C)C(=O)O,inactive: 1.29
3,CC(C)[C@H](N)C(=O)N[C@@H](C)C(=O)O,inactive: 355
4,C[C@H](O)[C@@H](NC(=O)CN)C(=O)O,inactive: 0
5,NC(=O)C[C@H](NC(=O)[C@@H]1CCCN1)C(=O)O,active: 6320
6,O=C(O)CC[C@H](NC(=O)[C@@H]1CCCN1)C(=O)O,inactive: 0
7,O=C(O)[C@H](CO)NC(=O)[C@@H]1CCCN1,inactive: 371
8,N[C@@H](Cc1ccccc1)C(=O)NCC(=O)NCC(=O)O,inactive: 1270
9,C[C@H](NC(=O)CCN)C(=O)O,inactive: 0
10,NC(N)=NCCC[C@H](NC(=O)[C@@H]1CCCN1)C(=O)O,active: 8420
11,C[C@@H](O)[C@H](N)C(=O)N[C@@H](Cc1ccccc1)C(=O)O,inactive: 955
12,CC(C)C[C@H](NC(=O)[C@H](CC(C)C)NC(=O)[C@@H](N)CC(C)C)C(=O)O,active: 3770
13,CSCC[C@H](NC(=O)[C@@H](N)Cc1ccccc1)C(=O)O,inactive: 236
14,C[C@@H](NC(=O)CN)C(=O)O,inactive: 0
15,CC(C)C(NC(=O)C1CCCN1)C(=O)O (stereo unspecified),inactive: 191
